Measurements published in paper PMC4336329 (PLoS ONE, 2015).
Among all 310,000 compounds or so, about 14,000 (4.5%) showed an effect of 50% or more. The effect is printed as a negative number. The list shows a part of the results.

Target: human ether-à-go-go-related gene (hERG) potassium channel (human, UniProt Q12809)
Assay: primary screen, population patch clamp on CHO cells stably expressing hERG
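Note: peak tail current of the secondary pulse compared with the same well before compound.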

human ether-à-go-go-related gene (hERG) potassium channel, sequence (Q12809 whole entry, looked up): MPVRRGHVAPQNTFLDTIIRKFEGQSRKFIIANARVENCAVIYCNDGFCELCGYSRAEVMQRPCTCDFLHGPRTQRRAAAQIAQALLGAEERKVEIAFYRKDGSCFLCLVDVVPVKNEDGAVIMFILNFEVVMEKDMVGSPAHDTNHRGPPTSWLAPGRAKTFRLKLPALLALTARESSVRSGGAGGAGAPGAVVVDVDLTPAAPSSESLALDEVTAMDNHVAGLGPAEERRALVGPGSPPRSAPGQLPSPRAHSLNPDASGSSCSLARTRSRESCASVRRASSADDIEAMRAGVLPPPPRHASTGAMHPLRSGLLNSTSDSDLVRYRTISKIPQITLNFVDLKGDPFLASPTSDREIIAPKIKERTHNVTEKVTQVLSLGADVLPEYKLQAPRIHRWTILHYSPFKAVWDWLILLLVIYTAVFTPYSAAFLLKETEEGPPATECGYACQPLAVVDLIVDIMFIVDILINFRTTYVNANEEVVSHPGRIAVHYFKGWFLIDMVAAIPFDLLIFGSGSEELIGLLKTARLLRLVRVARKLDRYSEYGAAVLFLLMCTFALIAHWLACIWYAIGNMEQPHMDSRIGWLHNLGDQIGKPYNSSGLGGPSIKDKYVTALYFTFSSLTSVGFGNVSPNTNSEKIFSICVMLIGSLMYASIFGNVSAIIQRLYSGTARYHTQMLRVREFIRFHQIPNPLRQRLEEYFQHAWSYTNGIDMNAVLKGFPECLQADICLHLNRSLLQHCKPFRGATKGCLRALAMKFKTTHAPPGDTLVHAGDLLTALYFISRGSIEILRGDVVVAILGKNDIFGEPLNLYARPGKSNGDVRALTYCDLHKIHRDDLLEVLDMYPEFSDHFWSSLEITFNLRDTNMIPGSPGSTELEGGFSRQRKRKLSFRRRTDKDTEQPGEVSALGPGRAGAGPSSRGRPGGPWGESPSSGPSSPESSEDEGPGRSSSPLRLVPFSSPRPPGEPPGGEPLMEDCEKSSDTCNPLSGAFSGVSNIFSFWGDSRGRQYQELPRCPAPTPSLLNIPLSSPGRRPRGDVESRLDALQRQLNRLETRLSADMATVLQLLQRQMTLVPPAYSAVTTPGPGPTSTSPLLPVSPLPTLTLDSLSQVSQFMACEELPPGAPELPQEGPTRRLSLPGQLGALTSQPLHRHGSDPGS

| SMILES | hERG current change (%, negative = inhibition) at 10uM [%] |
| --- | --- |
| CCCC1(C(=O)OC)NC(c2ccc(OC)cc2OC)C2C(=O)N(c3cccc(C(C)=O)c3)C(=O)C21 (stereo not drawn) | -3.51 |
| Cc1nc2c(c(=O)c3ccccc3n2C)c(=O)n1C1CCCCCC1 | -0.582 |
| CN(Cc1ccc(OC(F)F)cc1)C(=O)c1ccc2c(=O)n3c(nc2c1)CCC3 | -33.3 |
| O=C(CN(Cc1ccco1)C(=O)CNS(=O)(=O)c1ccc(Cl)cc1)NCc1ccc(F)cc1 | -30.1 |
| N#CC(c1ccccc1)N1CCOCC1 (stereo not drawn) | 6.63 |
| CCN(CC)CCN(C(=O)CCS(=O)(=O)c1ccccc1)c1nc2cc(OC)c(OC)cc2s1.Cl | -45 |
| CCOc1ccccc1-n1c(SCC(=O)N2CCCC2)nnc1-c1ccc(O)cc1 | 9.76 |
| COc1ccc(NS(=O)(=O)Cc2ccccc2)cc1OC | -9.67 |
| O=C(NC(=S)Nc1ccccc1Br)c1ccc2c(c1)OCO2 | -56.4 |
| Cc1nn(-c2ccccc2)cc1/C=N/NS(=O)(=O)c1ccccc1 | -47.9 |
| COc1cccc(-c2nc(SCC(=O)Nc3nc(-c4ccccc4)c(C)s3)[nH]c(=O)c2C#N)c1 | -0.354 |
| Cc1ccc(C)n1Cc1ccccc1Cl | 8.85 |
| COc1cc(N2CCOCC2)ccc1C=C(C#N)C#N | 0.792 |
| COc1cc(OC)c(OC)cc1/C=N/NC(=O)c1ccc2nc[nH]c2c1 | 10.2 |
| COc1ccc([N+](=O)[O-])cc1N=Cc1c(O)n(CCc2ccccc2)c(=O)n(C(C)C)c1=O | 4.31 |
| Cc1nccn1CC(=O)O | 15.7 |
| O=C1C2C3C=CC(C3)C2C(=O)N1c1cccc(-c2nc3ccccc3o2)c1 (stereo not drawn) | 18 |
| CC1(C)CC(=O)C2=C(C1)Nc1nc(SCCN3CCOCC3)[nH]c(=O)c1C2c1cccs1 (stereo not drawn) | 5.91 |
| COc1cccc(S(=O)(=O)N2CCN(c3ccccc3F)CC2)c1 | -6.35 |
| O=C(Nc1ccccc1Cl)C1CCCN(S(=O)(=O)c2ccc(F)cc2)C1 (stereo not drawn) | 1.62 |
| CC(C)C(=O)NC(c1ccccc1)c1cc([N+](=O)[O-])c2cccnc2c1O (stereo not drawn) | 7.91 |
| O=C(CCSCCC(=O)NCc1ccccc1)NCc1ccccc1 | -0.563 |

| SMILES | hERG current change (%, negative = inhibition) at 10uM [%] |
| --- | --- |
| CC1CCC2(CC1)NC(=O)N(CC(=O)Nc1ccc3c(c1)CCC3)C2=O (stereo not drawn) | 7.97 |
| Cc1csc(SCC(=O)Nc2ccc(S(=O)(=O)N3CCCC3)cc2)n1 | -7.43 |
| Cc1ccc(C(C)C)cc1S(=O)(=O)Nc1cccnc1 | 15.1 |
| COc1ccc(OC)c(NC(=O)c2ccccc2N(Cc2ccccc2)S(C)(=O)=O)c1 | -5.46 |
| COc1ccccc1-c1nnc(SCCN2CCOCC2)n1-c1ccc(C)cc1 | -10.6 |
| CSc1ncnc2c1cnn2-c1ccc(C)cc1C | -7.12 |
| Cc1c(NC(=O)C(C)OC(=O)CNC(=O)c2ccc(C(C)(C)C)cc2)c(=O)n(-c2ccccc2)n1C (stereo not drawn) | 13.2 |
| CC(C)NCC(O)c1ccc(O)c(O)c1.Cl (stereo not drawn) | 17 |
| Cc1ccccc1C(=O)Nc1nnc(-c2ccncc2)o1 | 5.13 |
| O=S(=O)(c1ccc2c(c1)CCCC2)N1CCNCC1 | 6.05 |
| CCOc1ccccc1OCC(=O)OC(C)C(=O)Nc1ncc(Cl)cc1Cl (stereo not drawn) | -12.2 |
| O=[N+]([O-])c1ccc(CSc2nnc(-c3cnccn3)o2)cc1 | -17.9 |
| O=C(NCc1ccc2c(c1)OCO2)c1ccc(CSCc2ccccc2Cl)o1 | 5.89 |
| Cl.O=C(CN1CCCCC1)Nc1cccc2c1OCO2 | 12.9 |
| CNCCOc1ccc(Cl)c(Cl)c1.O=C(O)C(=O)O | 12.8 |
| S=C(c1ccc(-c2ccccc2Cl)o1)N1CCCCC1 | -2.18 |
| CC(C)(C)N(Cc1ccccc1)C(=O)CSc1nc2ccccc2c(=O)[nH]1 | 7.19 |
| COc1ccc(C(C)=O)c(OC(=O)c2ccc(OC)c(OC)c2)c1 | 2.92 |
| S=c1nc(-c2ccccc2)oc2c1CCCC2 | 4.98 |
| Cc1cc(C2C(C#N)=C(N)SC(N)=C2C#N)c(C)s1 | 13.3 |
| Cc1ccnc(NC(=O)c2cccc(S(=O)(=O)N3CCN(c4ccc(F)cc4)CC3)c2)c1 | -31.6 |
| COc1ccc2ccccc2c1CNCCN1CCOCC1.Cl | 14.4 |

| SMILES | hERG current change (%, negative = inhibition) at 10uM [%] |
| --- | --- |
| COCCn1cnc2c1c(=O)n(CC(=O)O)c(=O)n2Cc1ccccc1 | 20.4 |
| Cc1cc(C)nc(Nc2ccc(C(=O)O)cc2)n1.Cl | -5.88 |
| CCC(C)N1C(=O)S/C(=C/c2ccc3c(c2)n(C)c(=O)n3C)C1=O (stereo not drawn) | 7.82 |
| O=C(O)CC(SCC(=O)Nc1ccccc1)C(=O)O (stereo not drawn) | 23 |
| O=C(Nc1ccc(Cl)cc1)OC1CN2CCC1CC2 (stereo not drawn) | -40.6 |
| CCN1C=C(Cc2cccs2)C2=C(C1)C(c1cccs1)C(C#N)=C(N)O2 (stereo not drawn) | -16.8 |
| CCOc1ccc(S(=O)(=O)N/N=C(\C)Cc2ccc(OC)cc2)cc1 | -6.5 |
| O=C1c2ccccc2S(=O)(=O)N1CCS(=O)(=O)c1ccc(F)cc1 | 13.6 |
| CCCCNC(=O)C1C2C=CC(C2)C1C(=O)O (stereo not drawn) | 6.98 |
| CC1=C(C(=O)Nc2ccccc2)C(c2ccco2)NC(=O)N1 (stereo not drawn) | 14.5 |
| COC(=O)c1cccc(C23CC4(C2)[C@H](CN(CC2CCCCC2)[C@@H]4c2ccccc2)C3c2ccccc2)c1 (stereo partly drawn) | -2.62 |
| CC(NC(=O)[C@H](C)N1C(=O)N2CCc3c([nH]c4ccccc34)[C@@]2(C)C1=O)c1ccccc1 (stereo partly drawn) | -13.2 |
| Cc1ccc(NC(=O)Cc2ccc(Cl)cc2)nc1 | -0.845 |
| COC(=O)C1=C(c2cccc3c2S(=O)(=O)c2ccccc2-3)C[C@@H]2CC[C@H]1N2C(=O)N1CCOCC1 | -28.6 |
| Cc1ccc(C(c2nnnn2CS(=O)(=O)c2ccc(C)cc2)N2CCN(c3ncccn3)CC2)cc1 (stereo not drawn) | -0.396 |
| CCc1noc(C)c1C(=O)N1CCN(S(=O)(=O)c2ccc(C)cc2)CC1 | -12.1 |
| COc1ccc(C(=O)Nc2ccc(S(=O)(=O)N3CCc4ccccc43)cc2)cc1 | 14.6 |
| CC1=C(C#N)C(NC(=O)c2ccco2)(C(F)(F)F)C(=O)N1 (stereo not drawn) | 6.62 |
| O=C(C1CCCN(c2ncnc3c2nc2n3CCCCC2)C1)N1CCCCC1 (stereo not drawn) | -18.2 |
| CN1C(=O)CC(NNC(=O)c2ccc(Cl)cc2)C1=O (stereo not drawn) | -2.47 |
| CCSc1cc(N2CCOCC2)nc(-c2ccc(Cl)cc2)n1 | 0.393 |
| O=[N+]([O-])c1ccc(Oc2ccc(-c3cnc4ccccc4n3)cc2[N+](=O)[O-])cc1 | 6.13 |

| SMILES | hERG current change (%, negative = inhibition) at 10uM [%] |
| --- | --- |
| O=C(COc1ccccc1Br)c1ccc2c(c1)OCO2 | -20 |
| COc1cc2c(cc1OC)C(C)N(C(=O)c1nccnc1C(=O)O)CC2 (stereo not drawn) | 14.3 |
| O=S(=O)(NCC(c1cccnc1)N1CCN(Cc2ccccc2)CC1)c1ccc(F)cc1 (stereo not drawn) | -65 |
| COC(=O)C1=C(C)N(CC2CC2)C(=O)N[C@H]1c1ccc(Br)cc1 | -9.4 |
| Cc1cc(NC(=O)COc2ccccc2C)ccc1NC(=O)c1ccco1 | 4.14 |
| Cc1cc(NC(=O)Cn2nc(C(=O)O)c3ccccc3c2=O)ccc1Br | 11.7 |
| COc1ccc(CCNC(=O)Cn2nc(C)c3c(C)n(-c4ccccc4)nc3c2=O)c(OC)c1 | -0.662 |
| Cc1ccc(N(CCC#N)C(=O)COC(=O)c2ccccn2)cc1 | 6.47 |
| COc1ccc(/C=C/C(=O)N2CC(C)OC(C)C2)cc1OC (stereo not drawn) | -11 |
| COc1cc2c3cc1Oc1cc(ccc1O)C[C@@H]1c4c(cc(OC)c(O)c4Oc4ccc(cc4)C[C@H]3N(C)CC2)CCN1C | -37 |
| CCCCCCNC(=O)N1C/C=C\C(c2ccc(OC)cc2)N(Cc2ccc(F)cc2)C(=O)C1 (stereo not drawn) | -16 |
| Cc1ccc(/C=C/C(=O)OC(C)C(=O)Nc2ncc(Cl)cc2Cl)o1 (stereo not drawn) | 7.79 |
| O=C(Cc1ccccc1)NNC(=O)c1ccc(NC(=O)c2ccccc2)cc1 | 22.3 |
| C#CCSc1nnc(-c2ccc([N+](=O)[O-])cc2)o1 | -5.47 |
| Cc1ccc(-c2ccc(=O)n(CCC(=O)N3CCN(Cc4ccccc4)CC3)n2)cc1 | -32.9 |
| CC(C)(C)C(=O)NC(=S)NNC(=O)c1ccc(Cl)cc1Cl | 7.06 |
| Cc1ccc(C(=O)N2CCCC(Nc3ccc(C(C)C)cc3)C2)cn1 (stereo not drawn) | 9.22 |
| CCC(=O)Nc1ccccc1C(=O)OCc1ccc(C(=O)c2ccccc2)cc1 | -16.1 |
| CNC(=O)C1CC(=O)N(Cc2ccc3c(c2)OCO3)C(=Nc2ccc(F)cc2)S1 (stereo not drawn) | -10.8 |
| O=C(CCSc1ccc(Br)cc1)c1ccc(O)cc1 | 17 |
| COc1ccc(COc2ccsc2C(=O)Nc2ccc(Cl)c(Cl)c2)cc1 | 14.1 |
